# Measurements published in PubChem BioAssay AID1671193 (National Center for Advancing Translational Sciences (NCATS), 2021).
# Screen size: about 150,000 compounds; about 180 (0.12%) were called active. Inconclusive results, whose numbers are uncertain, are shown with a selection of clear calls. The call rests on the fitted dose curve; in most records, active means well fitted cell-killing curve with a large enough effect; inconclusive means small, poorly fitted or top-dose-only effect, or effect the other way; inactive means flat fitted curve, though single readings scatter. Where the call is inconclusive, the potency comes from a doubtful curve fit.
# Test: GF-AFC viability counterscreen for inhibitors of alpha-synuclein gene (SNCA) expression; further: nearly all actives have a fitted effect of over 30% in size
# Conditions: HEK-293-SNCA-luc viability, GF-AFC fluorescence, 24 h; series mostly up to 57.1 µM
# How it was run: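 Cytotoxicity counterscreen: after 24 h compound treatment of genome-edited SNCA-luciferase HEK-293 cells, live-cell protease substrate GF-AFC read by fluorescence after 30 min; activity scaled between DMSO (0%) and medium-only (-100%), curves Hill-fitted.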
# Potency means the concentration at half of the fitted maximal effect; tags describe the fitted curve by direction and shape.
row,SMILES,Potency
1,Cc1nnc(N2CCCC(C(=O)NCc3ccccc3)C2)c2nn(-c3ccccc3)c(C)c12 (centres undefined),"inconclusive: 3.98 µM [cytotoxic, partial curve, poor fit]"
2,Cc1noc2c(NC3CCC(O)CC3)cc(-c3cccs3)nc12 (centres undefined),inactive
3,N#CSc1cc(SC#N)c(N)nc1N,"inconclusive: 4.5 µM [cytotoxic, partial curve, poor fit]"
4,O=C(NCCn1ccn2nc(-c3ccc(F)cc3)cc2c1=O)c1c(F)cccc1Cl,inactive
5,Cc1ccc(-c2nc(C(=O)N3CCN(c4cccc(C)c4)CC3)no2)cc1,inactive
6,O=C1c2cnc(-c3ccsc3)nc2OCCN1CC1CC1,inactive
7,CCOC(=O)c1cc2c(=O)n3ccccc3nc2n(Cc2ccco2)c1=NC(=O)c1ccc(Br)cc1,"inconclusive: 25.1 µM [rising, partial curve, poor fit]"
8,CC(C)n1nc(-c2ccc3oc(N)nc3c2)c2c(N)ncnc21,"inconclusive: 0.119 µM [cytotoxic, full curve]"
9,CCOc1ccccc1CNC(=O)[C@H]1CCC[C@H]1NC(=O)c1ccc(OC)cc1,"inconclusive: 25.1 µM [cytotoxic, partial curve, poor fit]"
10,Cc1nn2c(c1-c1cccc3cn[nH]c13)N(C(=O)COc1ccccc1C(N)=O)CCC2,inactive
11,CO[C@H]1C(=O)N(C2CCN(C(=O)Nc3ccc4c(c3)OCCO4)CC2)[C@H]1c1ccncc1,inactive
12,CC(=O)OCc1cnc(C)c2oc(=O)c(C(=O)Nc3cc(F)ccc3C)cc12,"inconclusive: 39.8 µM [cytotoxic, single point]"
13,NCCCC(=O)N1CCCC2(Cc3ccccc3CN2C(=O)Cc2cccc(Cl)c2)C1 (centres undefined),"inconclusive: 28.2 µM [cytotoxic, partial curve, poor fit]"
14,COc1cc(C)c(Sc2cnc(NC(=O)c3ccc(CNC(C)C(C)(C)C)cc3)s2)cc1C(=O)N1CCN(C(C)=O)CC1 (centres undefined),"inconclusive: 17.1 µM [cytotoxic, partial curve]"
15,CC(C)N1CC[C@@H]2[C@H]1C(=O)NC[C@H](CCC(=O)N1CCc3ccccc31)N2C,inactive
16,Cc1ccc2c(n1)OC(COc1ccccc1)CN(Cc1cccs1)C2=O (centres undefined),"inconclusive: 2 µM [rising, single point]"
17,CN(C)c1ncc2nc(-c3ccccc3)c(=O)n(CCc3ccccc3)c2n1,"inconclusive: 12.6 µM [rising, partial curve]"
18,CC(=O)Nc1nc2c(Oc3cc(-c4ccc(C(F)(F)F)cc4)ncn3)cccc2s1,"inconclusive: 37.7 µM [cytotoxic, single point]"
19,COc1ccc(-c2cc3c(cn2)CN(CCc2ccccc2)CCN3)cc1OC,"inconclusive: 25.1 µM [cytotoxic, partial curve, poor fit]"
20,COc1cccc(NC(=O)c2ccc3c(c2)NC(C)(COc2cccnc2)CO3)c1 (centres undefined),"inconclusive: 63.1 µM [cytotoxic, single point]"

row,SMILES,Potency
1,CCOC(=O)COc1ccc(/C=C(\C#N)c2nc3ccc(C)cc3[nH]2)cc1OC,"inconclusive: 39.8 µM [rising, single point]"
2,CCc1cccc(NC(=O)Nc2cccc(-c3ccc(N4CCOCC4)nn3)c2)c1,"inconclusive: 39.8 µM [cytotoxic, single point]"
3,Cc1cccc(CC(=O)N2CCC(n3cc(-c4nc(-c5ccccc5)no4)nn3)CC2)c1,"inconclusive: 20 µM [rising, partial curve, poor fit]"
4,CCOC(=O)c1ccc(N2C(=O)c3[nH]nc(-c4ccc(C)cc4)c3C2c2ccc(O)cc2)cc1 (centres undefined),"inconclusive: 10 µM [cytotoxic, partial curve, poor fit]"
5,CCOc1ccc(Nc2nc(N)c(C(=O)c3ccccc3Cl)s2)cc1,"inconclusive: 31.6 µM [cytotoxic, partial curve, poor fit]"
6,C/C=C/C=C/C(=O)OC1CC/C=C/C(O)C(O)C(CCC)OC1=O (centres undefined),inactive
7,Cc1noc(C)c1-c1cc2cc(CN(C)C)oc2c(NCc2ccccc2)n1,inactive
8,CCC(=O)N1c2ccccc2CC1C(=O)NCCCN1CCN(c2cccc(Cl)c2)CC1 (centres undefined),"inconclusive: 39.8 µM [cytotoxic, partial curve, poor fit]"
9,CC1c2ccccc2CN1NC(=O)c1ccc(Cl)c(S(N)(=O)=O)c1 (centres undefined),"inconclusive: 21.2 µM [rising, single point]"
10,CS(=O)(=O)c1ncc(Cl)c(C(=O)N2CCN(c3cccc(Cl)c3)CC2)n1,"inconclusive: 8.91 µM [cytotoxic, partial curve, poor fit]"
11,Cc1[nH]c2ccccc2c1C1=C(NCCc2ccc(F)cc2)C(=O)N(C)C1=O,"inconclusive: 16.8 µM [cytotoxic, partial curve, poor fit]"
12,Cc1ccc(-c2nc3cnccn3c2NCCC(=O)NCc2ccco2)cc1,"inconclusive: 31.6 µM [rising, single point]"
13,CCC(C)NC(=O)N1CC(n2cc(C(=O)NCC3CC3)nn2)C1 (centres undefined),"inconclusive: 8.91 µM [cytotoxic, partial curve, poor fit]"
14,CCOc1ccccc1NC(=O)Nc1ccc2nc(N3CCN(C)CC3)cc(C)c2c1,"inconclusive: 39.8 µM [cytotoxic, single point]"
15,C=CC(=O)Nc1cccc(Nc2nc(Nc3ccc(Oc4ccnc(C(=O)NC)c4)cc3)ncc2F)c1,"inconclusive: 33.6 µM [cytotoxic, single point]"
16,CCCSc1nc(N[C@@H]2C[C@H]2c2ccc(F)c(F)c2)c2nnn([C@@H]3C[C@H](OCCO)[C@@H](O)[C@H]3O)c2n1,"inconclusive: 33.6 µM [cytotoxic, single point]"
17,c1nc(NCCN2CCOCC2)c2cc(-c3ccc4c(c3)OCO4)ccc2n1,"inconclusive: 7.08 µM [cytotoxic, single point]"
18,COc1ccc(C2=CC(c3ccccc3Cl)n3nc(-c4ccc(C)cc4)nc3N2)cc1 (centres undefined),"inconclusive: 35.5 µM [rising, partial curve]"
19,CCc1ccc(-n2c(SCc3nc(-c4cc(OC)ccc4OC)no3)nnc2-c2ccccc2)cc1,"inconclusive: 39.8 µM [cytotoxic, single point]"
